# Where a name gives a salt, the structure may show the parent alone. This is one part of the list. Most values come without repeats; read them as rough.
# Tested on: HeLa VPS33A KO + NLuc-VPS33A R498W
# Experiment: relative mutant VPS33A R498W amount (NanoLuc luminescence) vs DMSO (fraction of DMSO); HeLa model of a glycosaminoglycan (GAG) storage disease; KI is knock-in and KO knock-out; SDC1 is syndecan 1; higher = higher mutant VPS33A level
# Conditions: 50 µM; 24 h
# 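Further: screen of an FDA-approved drug library, NanoLuc luminescence read after lysing the treated cells, taken as a measure of mutant VPS33A protein stability.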
row,Compound,relative mutant VPS33A R498W amount
1,C/C(=C\C(=O)OCCCCCCCCC(=O)O)C[C@@H]1OC[C@H](C[C@@H]2O[C@H]2[C@@H](C)[C@H](C)O)[C@@H](O)[C@H]1O [Mupirocin],1.17
2,CC(C)C(=O)c1c(C(C)C)nn2ccccc12 [Ibudilast],0.609
3,Cc1ncc([N+](=O)[O-])n1CC(C)O (centres undefined) [Secnidazole],1.25
4,Clc1ccccc1CN1CCc2sccc2C1 [Ticlopidine HCl],0.661
5,O=C1OC2(c3ccc(O)cc3Oc3cc(O)ccc32)c2ccccc21 [Fluorescein],1.18
6,OC(Cn1cncn1)(Cn1cncn1)c1ccc(F)cc1F [Fluconazole],1.35
7,CS(=O)(=O)OCCCCOS(C)(=O)=O [Busulfan],0.856
8,OC(CCN1CCCCC1)(c1ccccc1)C1CC2C=CC1C2 (centres undefined) [Biperiden HCl],0.93
9,NCCCC(O)(P(=O)(O)O)P(=O)(O)O [Alendronate],0.983
10,C[n+]1cccc(C(=O)[O-])c1 [Trigonelline Hydrochloride],1.39
11,CCc1cc(/C(C)=N/OCc2ccc(C3CCCCC3)c(C(F)(F)F)c2)ccc1CN1CC(C(=O)O)C1 [BAF312 (Siponimod)],1.54
12,C[C@H]1O[C@@H](n2cc(F)c(=O)[nH]c2=O)[C@H](O)[C@@H]1O [Doxifluridine],1.24
13,Cc1c(O)cccc1C(=O)N[C@@H](CSc1ccccc1)[C@H](O)CN1C[C@H]2CCCC[C@H]2C[C@H]1C(=O)NC(C)(C)C [Nelfinavir],0.763
14,CC(=O)O[C@]1(C(C)=O)CC[C@H]2[C@@H]3CCC4=CC(=O)CCC4=C3[C@@H](c3ccc(N(C)C)cc3)C[C@@]21C [Ulipristal acetate],0.493
